Source: PubChem BioAssay AID624173 (National Center for Advancing Translational Sciences (NCATS), 2012)
In all, about 410,000 compounds went through this assay and about 490 (0.12%) were called active. This list was built around the results that the source calls inconclusive (neither active nor inactive); the mix of calls is not that of the screen. Calls come from the whole dose curve; as a rule, active = well fitted inhibition curve with a large enough effect; inconclusive = small, poorly fitted or top-dose-only effect; inactive = flat fitted curve, though single readings scatter. A potency beside an inconclusive call is a rough fit, not a confirmed value.

biological target: pyruvate kinase (Trypanosoma brucei) (UniProt Q57TT1); assay: qHTS of Trypanosoma Brucei Inhibitors; conditions: TbPYK enzyme, Kinase-Glo Plus ATP luminescence, 45 min; series mostly up to 76.8 µM; activity, negative = inhibition: at the top concentration; note: nearly all actives have a fitted effect of over 50% in size
Outline: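 Luminescent Kinase-Glo Plus end-point after 45 min room-temperature reaction of T. brucei pyruvate kinase started with 130 uM ADP (final). Buffer TEA 50 mM pH 7.2 with KCl, MgCl2, BSA, Tween-20; titration-based qHTS with fitted concentration-effect curves.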
% is set by controls: 0 for no effect and ±100 for the full control effect; potency is the fitted concentration of half-maximal effect; tags give direction and shape of the fitted curve.

Structure (SMILES) | Potency | activity, negative = inhibition
S=c1[nH]nc(-c2ccccc2Cl)n1CC1CCCO1 (stereo unspecified) | inconclusive: 15.8 µM [inhibitor, partial curve, poor fit] | –
CCn1c(-c2nn(-c3ccc(C)cc3)ccc2=O)n[nH]c1=S | inconclusive: 25.1 µM [inhibitor, partial curve] | –
Cc1ccsc1/C=N/Nc1nc(=O)[nH]nc1C | inconclusive: 35.5 µM [inhibitor, partial curve] | –
Cc1ccccc1-c1n[nH]c(=S)n1/N=C/c1c(C)nn(-c2ccccc2)c1C | inconclusive: 8.91 µM [inhibitor, partial curve, poor fit] | –
O=C(Nc1ccc(Cl)cc1C(=O)NCc1cccnc1)c1ccco1 | – | inactive: 4.26%
S=c1[nH]nc(COc2ccc(Cl)cc2Cl)n1-c1ccccc1 | inconclusive: 7.08 µM [inhibitor, full curve] | –
Cc1occc1C(=O)Nc1ccc(OCc2ccccc2)cc1 | inconclusive: 22.4 µM [inhibitor, partial curve] | –
CCn1c2ccccc2c2cc(/C=N/n3c(-c4cc(C)[nH]n4)n[nH]c3=S)ccc21 | inconclusive: 3.16 µM [inhibitor, full curve, poor fit] | –
Cc1cccc(N2C(=O)NC(=O)/C(=C/c3ccc(N4CCOCC4)cc3)C2=O)c1 | inconclusive: 28.2 µM [inhibitor, single point] | –
O=C(Nc1ccccc1)Nc1ccc2ccccc2c1 | – | inactive: -2.29%
Cc1cc(C)cc(NC(=O)CCN2CCCC2)c1 | – | inactive: -3.08%
O=C(Nc1cccc(F)c1)c1c(O)c2ccccc2[nH]c1=O | – | inactive: 2.21%
COc1ccc(/C=C(\C#N)c2nc(-c3cc4c(ccc5ccccc54)oc3=O)cs2)cc1O | – | inactive: 1.75%
O=C(CCc1c[nH]c2ccccc12)OCC(=O)N1CCN(S(=O)(=O)c2ccccc2)CC1 | – | inactive: 0.874%
Cc1ccc(CNC(=O)CSc2ncccn2)cc1 | – | inactive: -14.9%
O=C1C=CC2(C=C1)O[C@H](Cc1ccccc1)[C@@H](Cc1ccccc1)O2 | inconclusive: 35.5 µM [inhibitor, single point] | –
COc1ccc(CCNC(=O)CS(=O)(=O)c2cn(CC(=O)N3CCOCC3)c3ccccc23)cc1OC | – | inactive: -20.1%
C/C(=N/NC(=O)c1ccccn1)c1ccco1 | inconclusive: 44.7 µM [inhibitor, partial curve, poor fit] | –
Cc1ccccc1N1C(=O)NC(=O)/C(=C\c2cc(Br)c(N3CCOCC3)o2)C1=O | – | inactive: -4.29%
Cc1cccc2sc(=S)[nH]c12 | inconclusive: 15.8 µM [inhibitor, partial curve, poor fit] | –
COc1ccc(CC(N)c2csc(Nc3nncc4ccccc34)n2)cc1 (stereo unspecified) | – | inactive: -8.41%
